Source: paper PMC4769172
These are yes or no findings as the source states them, for the method shown. For some of these results: In cells and extracts the contact can be indirect. Some results given as binding are weak or reduced against the parent protein; the word gives no strength.

Sequences of proteins named here, by UniProt entry; tags and fusion partners are left off. A change or cut given only in a name is not applied to a line headed by its entry. A line that says so, or that is headed by a name, gives the form on record, which may keep a tag or linker. Residues count along the entry.
rat β2 subunit, wild type, myc-tagged (P54900, residues 30-215): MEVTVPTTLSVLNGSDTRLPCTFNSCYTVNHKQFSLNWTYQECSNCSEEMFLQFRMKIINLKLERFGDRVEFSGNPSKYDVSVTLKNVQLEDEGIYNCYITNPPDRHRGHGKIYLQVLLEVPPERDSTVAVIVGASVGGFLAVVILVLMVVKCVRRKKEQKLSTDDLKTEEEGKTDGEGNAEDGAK
rat β2 subunit C55S, myc-tagged (P54900, form named): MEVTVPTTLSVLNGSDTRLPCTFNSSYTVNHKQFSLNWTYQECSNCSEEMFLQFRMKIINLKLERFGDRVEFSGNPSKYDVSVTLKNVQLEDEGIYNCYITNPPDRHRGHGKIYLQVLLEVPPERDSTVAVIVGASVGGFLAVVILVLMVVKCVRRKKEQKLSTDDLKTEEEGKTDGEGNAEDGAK
UniProt Q7M730, residues 31-228: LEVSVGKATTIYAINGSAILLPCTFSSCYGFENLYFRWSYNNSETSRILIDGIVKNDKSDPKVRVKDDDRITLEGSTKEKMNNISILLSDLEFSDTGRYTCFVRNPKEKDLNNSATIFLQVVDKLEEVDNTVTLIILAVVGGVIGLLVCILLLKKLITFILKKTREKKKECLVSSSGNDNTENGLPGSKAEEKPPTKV

Key:
[1] = biological target: human β2 extracellular domain (residues 30–153) C55A (human) (UniProt O60939); test: SEC; […] (250 mM KCl, 10 mM HEPES pH 7.4); both purified
[2] = biological target: human β2 extracellular domain (residues 30–153) C55A, C72A, C75A (human) (UniProt O60939); test: as above
[3] = biological target: rat β2 subunit, wild type, myc-tagged (rat) (UniProt P54900); test: non-reducing gel and Western blot of crude lysate (co-migration of a covalent complex); crude lysate of injected Xenopus oocytes, 10 μg a lane, non-reducing conditions, probed with anti-PanNav and anti-myc
[4] = biological target: rat β4 subunit, wild type, myc-tagged (rat) (UniProt Q7M730); test: as above
[5] = biological target: rat β2 subunit, wild type, myc-tagged (rat) (UniProt P54900); test: co-IP; lysate of injected Xenopus oocytes (1x PBS, 1% DDM, 10% glycerol, 1 mM EDTA); β-subunit pulled down with anti-myc antibody and protein G Dynabeads at 4°C; eluate treated with DTT before the tris-acetate gel; channel detected with anti-PanNav
[6] = biological target: rat β4 subunit, wild type, myc-tagged (rat) (UniProt Q7M730); test: as above
[7] = biological target: rat β2 subunit, wild type, myc-tagged (rat) (UniProt P54900); test: gel with DTT and Western blot of crude lysate (co-migration of a covalent complex); crude lysate of injected Xenopus oocytes, DTT added, probed with anti-PanNav and anti-myc
[8] = biological target: rat β2 subunit C55S, myc-tagged (rat) (UniProt P54900); test: non-reducing gel and Western blot of crude lysate (co-migration of a covalent complex); crude lysate of injected Xenopus oocytes, 10 μg a lane, non-reducing conditions, probed with anti-PanNav and anti-myc
[9] = biological target: rat β2 subunit C55S, myc-tagged (rat) (UniProt P54900); test: co-IP; lysate of injected Xenopus oocytes (1x PBS, 1% DDM, 10% glycerol, 1 mM EDTA); β-subunit pulled down with anti-myc antibody and protein G Dynabeads at 4°C; eluate treated with DTT before the tris-acetate gel; channel detected with anti-PanNav

Substance | binding [3] | binding [4] | binding [5] | binding [6] | binding [7] | binding [8] | also measured
human β2 extracellular domain (residues 30–153) C55A (from UniProt O60939 30-153) (domain or fragment) | – | – | – | – | – | – | binding [1]: no binding
human β2 extracellular domain (residues 30–153) C55A, C72A, C75A (from UniProt O60939 30-153) (domain or fragment) | – | – | – | – | – | – | binding [2]: no binding
rat Nav1.2a C910S (from UniProt P04775 1-2005) | no binding | no binding | no binding | no binding | – | – | –
rat Nav1.2a, wild type (from UniProt P04775 1-2005) | binds | binds | binds | binds | no binding (condition: with DTT) | no binding | binding [9]: no binding
rat β2 subunit C55S, myc-tagged (from UniProt P54900 30-215) | – | – | – | – | – | no binding | –
rat β2 subunit, wild type, myc-tagged (from UniProt P54900 30-215) | binds | – | – | – | no binding (condition: with DTT) | – | –
